# In publication PMC4336329 (PLoS ONE, 2015):
# The campaign covered roughly 310,000 compounds. About 2,200 (0.71%) showed an effect of 50% or more. Effects have a minus sign here. The list shows a part of the results.
# Biological target: human ether-à-go-go-related gene (hERG) potassium channel (human, UniProt Q12809)
# Assay: primary screen, population patch clamp on CHO cells stably expressing hERG
# Sequence of human ether-à-go-go-related gene (hERG) potassium channel (Q12809 whole entry, looked up): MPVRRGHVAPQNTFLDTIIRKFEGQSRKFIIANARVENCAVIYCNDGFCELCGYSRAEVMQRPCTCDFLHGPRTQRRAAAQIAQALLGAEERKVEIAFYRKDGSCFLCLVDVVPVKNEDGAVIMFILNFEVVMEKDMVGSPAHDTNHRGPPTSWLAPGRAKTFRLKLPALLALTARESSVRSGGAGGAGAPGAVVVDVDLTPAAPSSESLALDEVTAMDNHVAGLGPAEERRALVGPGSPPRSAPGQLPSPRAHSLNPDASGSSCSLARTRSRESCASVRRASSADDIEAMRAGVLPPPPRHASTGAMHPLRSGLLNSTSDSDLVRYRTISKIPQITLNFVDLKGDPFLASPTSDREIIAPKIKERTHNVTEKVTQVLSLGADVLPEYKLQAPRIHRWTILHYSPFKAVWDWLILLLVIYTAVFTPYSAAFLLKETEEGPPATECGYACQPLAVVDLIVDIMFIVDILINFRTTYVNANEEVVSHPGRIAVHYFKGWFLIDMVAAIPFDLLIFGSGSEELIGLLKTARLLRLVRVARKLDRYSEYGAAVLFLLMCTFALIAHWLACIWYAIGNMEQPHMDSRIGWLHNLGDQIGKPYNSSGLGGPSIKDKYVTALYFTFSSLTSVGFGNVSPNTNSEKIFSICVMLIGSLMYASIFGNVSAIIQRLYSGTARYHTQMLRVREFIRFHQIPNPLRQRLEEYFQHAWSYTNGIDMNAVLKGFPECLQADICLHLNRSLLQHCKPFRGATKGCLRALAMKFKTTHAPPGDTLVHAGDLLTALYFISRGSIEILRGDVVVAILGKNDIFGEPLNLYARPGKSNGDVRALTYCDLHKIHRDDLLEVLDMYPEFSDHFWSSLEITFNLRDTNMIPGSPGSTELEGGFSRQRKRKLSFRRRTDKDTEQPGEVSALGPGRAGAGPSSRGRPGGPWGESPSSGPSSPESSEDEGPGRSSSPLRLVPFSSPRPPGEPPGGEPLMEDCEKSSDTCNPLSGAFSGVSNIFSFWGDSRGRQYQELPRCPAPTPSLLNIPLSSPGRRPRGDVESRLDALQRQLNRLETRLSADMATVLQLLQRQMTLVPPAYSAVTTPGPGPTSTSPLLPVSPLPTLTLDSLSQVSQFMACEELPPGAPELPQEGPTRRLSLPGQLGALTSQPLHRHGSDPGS
row,SMILES,"hERG current change (%, negative = inhibition) at 1uM [%]"
1,O=C(CCN1C(=O)/C(=C/c2ccc3c(c2)OCO3)SC1=S)Nc1ccc(C(=O)O)cc1,13.6
2,O=C1C2C3C=CC(C3)C2C(=O)N1c1ccc(N2CCN(c3ccccn3)CC2)c([N+](=O)[O-])c1 (stereo not shown),-3.4
3,Cn1c2c(c(=O)n(C)c1=O)NC1(N2)C(=O)Nc2ccccc21 (stereo not shown),9.25
4,Cc1cccc(C)c1OCCCn1ccnc1,14.4
5,O=C(Cc1ccccc1)NNC(=O)C1CC=CCC1 (stereo not shown),19.1
6,NCCCN1CCN(c2ccccc2)CC1,-3.41
7,COc1ccc(CC(=O)Nc2ccncc2Cl)cc1,20.8
8,Cc1cc(C)c2c(c1)/C(=N/NS(=O)(=O)c1ccc(Br)cc1)CCC2,10.8
9,CNC(=O)N(O)C1N(/N=C/c2ccccc2OC)C(=S)SC1(C)C (stereo not shown),-8.28
10,Cc1ccccc1Nc1nnc(SCC(=O)Nc2ncc(C(F)(F)F)cc2Cl)s1,1.58
11,Cc1ccc(-c2noc(CN(C(=O)c3cccs3)C(C)C)n2)cc1,13
12,O=C(CN1C(=O)c2ccccc2S1(=O)=O)Nc1ccccn1,9.6
13,CCOC(=O)c1c(C)[nH]c(C)c1S(=O)(=O)N1CCN(C(=O)c2ccco2)CC1,19.8
14,CC1(C)Cc2c(cnn2-c2ccccc2)C(=O)/C1=N\NC(=O)c1ccccc1O,6.64
15,Cc1ccc(-c2cc3onc(-c4ccccc4)c3c(=O)n2C)cc1,7.47
16,Clc1c(-c2ccccc2)nnn1-c1ccccc1,-2.38
17,CN1CCCN=C1/C=C/c1cccs1.O=C(O)C(O)C(O)C(=O)O,10.9
18,CCNc1nc(NCc2ccccc2)nc(SCC(=O)Nc2ccccc2)n1,2.94
19,Cc1ccc(-c2nn3c(C)nnc3s2)cc1NC(=O)c1cccnc1,-9.12
20,Cn1c(CCNC(=O)c2cccs2)nnc1SCC(=O)N1CCN(c2ccccc2)CC1,12.1
21,CCCCOc1ccc(C(=O)OCC(=O)N2CCOCC2)cc1,9.82
22,CC(C)C(CO)NC(=O)CC(=O)NC(CO)C(C)C (stereo not shown),-1.24

row,SMILES,"hERG current change (%, negative = inhibition) at 1uM [%]"
1,CN(C(=O)CCn1c(=S)oc2ccccc21)C1CCCCC1,-2.64
2,COc1ccc(C(C)=O)cc1CC(C(=O)c1ccc(C)cc1)N(C)C (stereo not shown),3.16
3,COc1ccc(-c2nc3n(c(=O)c2C#N)CCS3)cc1OC,10.1
4,CC(=O)c1ccc(NC2c3ncccc3C(=O)N2Cc2ccc(F)cc2)cc1 (stereo not shown),-10.4
5,COc1ccc(C2NC(c3ccc(OC)cc3)C(c3ccccc3)C(=O)C2c2ccccc2)cc1 (stereo not shown),-0.694
6,CCOC(=O)Nc1ccc2c(c1)N(C(=O)CCN(C)C)c1ccccc1S2.Cl,-5.69
7,N#Cc1c(C(F)(F)F)cc(=O)n2c1[nH]c1ccccc12,15.5
8,CC1CCC2C(=O)N(c3ccc(C(=O)Oc4cccc5cccnc45)cc3)C(=O)C2C1 (stereo not shown),5.78
9,Cc1cc(C)c(S(=O)(=O)c2cccc(Cl)c2)c(Cl)n1,9.47
10,O=[N+]([O-])c1cccc(CN2[C@@H](Cc3ccccc3)COCCS2(=O)=O)c1,8.26
11,CCN(CC(=O)Nc1ccccc1C(=O)OC)S(=O)(=O)c1ccccc1,6.88
12,Cc1ccc(S(=O)(=O)N/N=C(\c2ccccc2)C2CC2)cc1,10.7
13,COCC(=O)N(C)C1(c2nnnn2CCOC(=O)Nc2cccc3ccccc23)CCCC1,12.5
14,O=c1c2ccccc2n(CC(O)CN2CCOCC2)c2ccccc12 (stereo not shown),1.17
15,CCOC(=O)N1CCN(c2nc(-c3ccco3)cc(C(F)(F)F)n2)CC1,6.85
16,CC1CCCC(NC(=O)COC(=O)COc2ccc(Cl)cc2)C1C (stereo not shown),13.8
17,C=CCN(C(=O)c1cccc(S(=O)(=O)N2CCN(C)CC2)c1)c1nc(-c2ccccc2)cs1,6.96
18,Cc1ccccc1NC(=O)Cc1nnc(SCC(=O)Nc2ccccc2)n1C,8.03
19,CCN(CC)c1ccc(/C=N/N2CCN(Cc3ccc(Cl)cc3)CC2)c(O)c1,7.28
20,CCOc1ccc(-c2nnc(SCC(=O)NC(C)(C)C)nc2-c2ccc(OCC)c(OC)c2)cc1OC,8.32
21,O=C(NCCOc1ccc(Cl)cc1)c1cccc(S(=O)(=O)N2CCCC2)c1,-6.99
22,CCOC(=O)c1sc(NC(=O)CSc2n[nH]c(-c3ccncc3)n2)c(C#N)c1C,15.6

row,SMILES,"hERG current change (%, negative = inhibition) at 1uM [%]"
1,CC(NCC(=O)Nc1ccccc1C(=O)NC1CC1)c1ccc(S(C)(=O)=O)cc1 (stereo not shown),10.9
2,COc1ccc(Nc2nc(C)cc(C)n2)cc1Cl.Cl,8.61
3,CCOC(=O)c1ccc(Nc2nc(C(=O)OCC)nc3ccccc23)cc1,4.76
4,CC(=O)Nc1ccc(S(=O)(=O)N2CCC(NC(=O)C(Cc3cccc(F)c3)NC(C)=O)CC2)cc1 (stereo not shown),18.5
5,CCc1ccc(C2(O)CC(C(F)(F)F)=NN2C(=O)Cc2ccc([N+](=O)[O-])cc2)cc1 (stereo not shown),2.37
6,O=C1CC(N2CCN(c3ccc(Cl)cc3)CC2)C(=O)N1c1ccc(F)cc1 (stereo not shown),11
7,COc1ccc(N2C(=O)CSC2c2ccccc2F)c(OC)c1 (stereo not shown),10.6
8,CCc1ccc(C(CNc2nc(C(F)(F)F)nc3ccccc23)N(C)C)cc1 (stereo not shown),12.1
9,CCOC1=C/C(=C/c2c(N)n3nc(S(=O)(=O)CC)sc3nc2=O)C=CC1=O,-3.94
10,CC[C@@]12C(=O)N(c3cccc(F)c3)C(=O)N1[C@H](c1ccc(F)cc1)[C@@H]1C(=O)N(C3CCCCC3)C(=O)[C@@H]12,17.4
11,CCOC(=O)Cc1csc(/N=C/c2c(O)n(-c3ccc(C)cc3C)c(=O)c3ccccc23)n1,0.725
12,O=C(Nc1ccccc1)Nc1ccc(Cl)c(S(=O)(=O)N2CCOCC2)c1,9.5
13,Cc1ccc(OCCNC(=O)c2ccc(COc3ccccc3)o2)cc1,11.2
14,COc1ccc(-c2cc3nc(C)cc(-c4ccc(OC)cc4)n3n2)cc1,8.87
15,Cc1cc(C)c2c(C)c(C(=O)Nc3c(C)n(C)n(-c4ccccc4)c3=O)oc2c1,-0.763
16,Cc1ccc(S(=O)(=O)N2CCN(C(=O)c3cc(S(=O)(=O)N(C)C)ccc3N3CCCC3)CC2)cc1,13.1
17,O=C(COC(=O)c1ccc(NC(=O)C2CC=CCC2C(=O)O)cc1)c1ccccc1 (stereo not shown),9.94
18,Cc1nn(CCOc2ccccc2)c(=O)n1-c1ccccc1F,18.9
19,CC(=O)c1cccc(NC(=O)N2CCc3ccccc3C2)c1,9.5
20,COc1nc(OC)nc(Oc2ccc(Cl)cc2[N+](=O)[O-])n1,-2.2
21,COc1cc(C2N(c3cc(C)on3)C(=O)C3CCCN32)cc(OC)c1OC (stereo not shown),13.3
22,CCOC(=O)c1c(S(=O)(=O)NCC(=O)Nc2cc(C)ccn2)c(C)n(C)c1C,17.2

row,SMILES,"hERG current change (%, negative = inhibition) at 1uM [%]"
1,O=C(Nc1ccccc1)c1sc(Cl)nc1-c1ccccc1,1.7
2,CCc1ccc2[nH]c(C)c(CN3CCCCCC3)c(=O)c2c1,-11.9
3,CSCC[C@H](NC(=O)OC(C)(C)C)c1nnc(SCC(N)=O)o1,-5.4
4,COC(=O)c1c(NC(=O)C(C)(C)C)sc2c1C(C(=O)OC)CC2 (stereo not shown),4.07
5,COc1ccccc1N(CN1CCCC1=O)C(=O)COc1ccccc1,7.44
6,Cc1cccc(NC(=O)CSc2nnc(-c3ccccc3)n2N)c1,12.6
7,O=C(CCN1C(=O)S/C(=C\c2ccccc2)C1=O)N1CCOCC1,6.48
8,CC(C)CNS(=O)(=O)c1ccc(CCC(=O)NC2CCCCC2)cc1,5.76
9,CN1CCN(c2nc(-c3ccccc3)c3cc(Cl)ccc3n2)CC1,2.43
10,COc1cc(C2C(C(=O)Nc3ccccc3OC)=C(C)Nc3ncnn32)ccc1O (stereo not shown),4.04
11,Cc1c(C=O)n(C)n(-c2ccccc2)c1=O,10.9
12,O=C(O)C1C2CCC(C2)C1C(=O)Nc1nc2ccccc2s1 (stereo not shown),19.2
13,Cc1cc(C)cc(N(CCC#N)C(=O)COC(=O)C2CCN(c3ccc(C(F)(F)F)cn3)CC2)c1,-7.76
14,Cc1ccc2c(c1)cc(CN(Cc1cccnc1)C(=O)NCc1ccccc1)c1nnnn12,-44.4
15,O=C(c1cccc(Br)c1)N1CCN(C(=O)N2CCOCC2)CC1,16.9
16,CCN(CC(=O)Nc1c(F)cccc1F)C(=O)c1ccc(C)c(S(=O)(=O)N2CCCCC2)c1,11
17,CCOC(=O)C1=NOC(Cn2cc(C(C)=O)c(=O)[nH]c2=O)C1 (stereo not shown),14.4
18,N=c1c(S(=O)(=O)c2ccc(Cl)cc2)cc2c(=O)n3ccccc3nc2n1CC1CCCO1 (stereo not shown),6.52
19,COc1ccc(N2C(=O)CCC(C(=O)O)C2c2ccccc2OC)cc1 (stereo not shown),4.68
